These results are taken from the supplement of paper PMC11417369.

The other results are listed elsewhere or left out.

In this assay the test system is PfHDP1 homeodomain (GST-tagged). Briefly: gcPBM binding intensity (ln(normalized median fluorescence intensity)); higher = stronger DNA binding. The essentials:
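Probes on an Agilent 4 × 180k array were primer-extended, double-stranded and 36 bp long, taken from intergenic genomic regions, with negative controls added. GST-tagged P. falciparum DNA-binding domains from E. coli, about 25 μg on average, were applied to the array for 1 h in 1× PBS containing 1% milk, 0.2 mg/ml BSA, 0.5% salmon testes DNA and 0.03% Triton X-100. Binding intensity, obtained after Alexa488 anti-GST antibody detection and a 488 nm scan, is the highest Masliner-normalised natural-log median intensity across replicate spots of either probe orientation.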
Consider “AAAAAATTTTAATATGCATGTAATTTTGCTTTTTCA [TGCATGCA_site1044]”, for which the “gcPBM binding intensity (ln)” value came out at 6.19.
Under “TAATATAGGGGTGTTCAAATAAATTTTGTTATTTTT [CACACA_negctrl_site1203]” stands 6.76; under “AGCACGCACAGACACACACACATATTTATATTTATA [CACACA_site6291]”, 7.62.
For “AAATAGAAAAAATATACACACACTTATTAAATAAAA [CACACA_site3313]” the value was 6.49; for “AAATAATAAAGTATAACACACATATTTATTTATATA [CACACA_site7822]”, 6.15; for “AAAATTAAAAAAATATGTACTTATGGGTAACATCAT [XGTACX_site5548]”, 5.92.
For AATATTCAATATAAAGTGCATTATTGTGCCCCTAAT the value was 8.68.
On to “GTTATACATTTGAAAAGTACTCATGATTTTTTTTTT [XGTACX_site8177]”, for which the “gcPBM binding intensity (ln)” value amounted to 6.71.
With “ATAAAAATCAAAAAAAATACATAATAGTAATAATAA [GTGCAC_negctrl_site481]”, the “gcPBM binding intensity (ln)” value amounted to 6.42.
Under “TTTTTATTGTTATACTTATATTATTTTATGATTAAA [XGTACX_negctrl_site262]” stands 6.54; under “ATTATATAATAATGCATGCACCTTATTTTCATTTCA [GTGCAC_site9922]”, 8.28.
Turning to “TTTCTTTTTTTGGGCACACAAAATTTTCTCATTTTA [CACACA_site68]”, the “gcPBM binding intensity (ln)” value was 6.65.
Turning to “AAAATAAAAAAAATGAATTAGTTAAATGAAAAATAA [CACACA_negctrl_site1294]”, the “gcPBM binding intensity (ln)” value came out at 6.31.
For “TGAATAAATAAACACACACACATATATATATCTGTA [CACACA_site4184]”, the “gcPBM binding intensity (ln)” value is 6.44.
For “ATAAAATTATTATATACATGCAAAATTAATATATTG [TGCATGCA_site507]” the value was 6.28; for “TATCTTCATATATGGTGTACAGATTTTTTTTTTTTT [XGTACX_site5545]”, 6.5.
On to “TAAACAAATAAATATTGTACATTTTTTCCTTTTAAT [XGTACX_site5594]”, for which the “gcPBM binding intensity (ln)” value was found to be 6.08.
For “AAGGATAATATATTAGAACACACATATATATGTAAA [CACACA_site7942]” the value was 6.69; for “TTTATATAAAATTATTGTACAGTTTTAATATTTTAA [XGTACX_site6807]”, 6.4.
Under “TACATACACAAATACACACACAAATACATACACAAA [CACACA_site704]” stands 7.33.
Under “ATATATTTATTTATATGTACATATTATATATTATAG [XGTACX_site3371]” stands 6.58; under “GATTATACAAAATATACACACGTGTACAGAAATATT [CACACA_site8305]”, 6.79.
As for “TTATATTAATTTTGTTGTACTATTTGTGCATTAAAT [XGTACX_site4790]”, the “gcPBM binding intensity (ln)” value is 10.8.
Under “AAGATATGAACATTTTGTACTTAAAAATTCAATATT [XGTACX_site7103]” stands 5.95; under “CACAGACACGGACACACACACATATATAATATATAT [CACACA_site4495]”, 7.17.
For “TACAATCCATATTGTTGTACATTTATAAAATTTACA [XGTACX_site3053]” the value was 6.15; for “CAATGGTACATACATACACACACACTAATAAAAAAA [CACACA_site8450]”, 6.8.
Under “GTATATATATAAGAAGAAATATATAAATAAAATATA [CACACA_negctrl_site503]” stands 6.41; under “ATTCGTCACATTTTTTGATATATATATATATATATA [CACACA_negctrl_site1785]”, 9.46; under “AATATATAAATGTTGTGTACTAAGCAATATATTTTA [XGTACX_site2483]”, 6.59.
As to “TAAAAAATATAAACTGCACACACACTAATAAAGAAA [CACACA_site8119]”, the “gcPBM binding intensity (ln)” value amounted to 7.18.
For the sequence “GCTTATTAATATCATACACACATAGATATATTTATA [CACACA_site3104]”, the “gcPBM binding intensity (ln)” value was 6.79.
Take “CTATTATCGGTTCCTACACACAAATATATATGTCTA [CACACA_site3579]”: the “gcPBM binding intensity (ln)” value is 7.04.
For “ATATAGTTGTCATATTGTACACTTTAGGGTTGGTTA [XGTACX_site7339]” the value was 6.64.
For “AGTTGGATACGAAGATGTACAATAATAATAATTAAG [XGTACX_site3561]” the value was 6.83; for “ACATTTTATATATGTAGTACATATTATAGATAATTT [XGTACX_site1976]”, 6.41; for “TCACTATAATAATTTACACACATTTTAAGAAAATGG [CACACA_site5867]”, 6.46.
Under “TATTTTATTTTTTTATGTACACAAAAAAAAAAAAAA [XGTACX_site945]” stands 6.58.
With “ATCAAAAACATACCTACACACACAATATGTATATAT [CACACA_site9171]”, the “gcPBM binding intensity (ln)” value was found to be 6.59.
For “TATTATGTTTATTAAACATGCATATATTTATTTATA [TGCATGCA_site187]” the value was 6.55; for “ATAAATGTTATGCATACACACTTTATACCTATTTAA [CACACA_site5967]”, 6.98.
Under “AATCCTTACAGACACACACACACGAATAAATAAAAA [CACACA_site480]” stands 6.93; under “TTATAATTTTTGAGCACACACAAGCATATATATATA [CACACA_site1798]”, 8.98; under “TATATATGTATATGTGTGCACCTTATTTCTTTTATT [GTGCAC_site9513]”, 9.55.
As for “TATGTATTATCAAAAAGTACTAAAAAAAAATAATAA [XGTACX_site4703]”, the “gcPBM binding intensity (ln)” value is 6.54.
For “ATAGCAATAATGGAAAGTACAAAAAAACTTGTTATA [XGTACX_site8518]” the value was 6.43; for “TATATATATATATATAAGCTTATAATAAAACAAAAA [XGTACX_negctrl_site568]”, 9.36.
For “TGTATTAATAAAAATACACACATCATATTATATAAA [CACACA_site3534]” the value was 6.43; for “CCTTTTAAGAGTTGCACACGTACAAAAAAAAAAAAA [CACACA_site3492]”, 9.57.
For the sequence “ACACATAAATGTATATATATATAAATATATGTATGT [CACACA_negctrl_site1532]”, the “gcPBM binding intensity (ln)” value amounted to 6.48.
Consider “GGCGATATAGAACTACGTACTTATACAAATTATAAT [XGTACX_site2307]”, for which the “gcPBM binding intensity (ln)” value was 6.48.
Turning to “AATAATAAAAAATACGCACACATGTAAACGTATGTT [CACACA_site3336]”, the “gcPBM binding intensity (ln)” value was found to be 6.99.
For “GTATATATATATTTATGTACTTACCTACATAATTAT [XGTACX_site4435]” the value was 6.63; for “TAAATAAATTTGCACTGTACGCAAAAAAAAAAAAGA [XGTACX_site8781]”, 9.28; for “AAAGGGGAGATATGAACACACAAAAAAAAAATATAT [CACACA_site7378]”, 6.5.
Under “AGAAAGGATATAAGCGTAGCTATATCATAAAAAATG [GTGCAC_negctrl_site332]” stands 6.23.
For “AATATTTACAGACATGCGCACACATAAATAAATAAT [CACACA_site8760]”, the “gcPBM binding intensity (ln)” value stood at 7.33.
Under “AAATAAAATTTTTGTTGTACTTATTTTTAGTATACT [XGTACX_site4254]” stands 6.34.
For “TATATATATTTTAAATGTACTTATAAATTACCACTT [XGTACX_site5673]” the value was 6.36; for “AAAAATAAAATATATATATATATATATATATATATA [CACACA_negctrl_site58]”, 9.46.
Consider “AATAAATACATACATACATGCATACATATATCTCAA [TGCATGCA_site1040]”, for which the “gcPBM binding intensity (ln)” value came to 6.53.
Under “TATTTTTATATATATACACACTTACAGATATATATT [CACACA_site5905]” stands 6.94; under “TGAAAAAAAAAATGCACACGCATACATATAATATGT [CACACA_site641]”, 9.34.
For “AAACATAAATATGAGAGTACAAAAAATATTATGAAT [XGTACX_site151]” the value was 6.86; for “TTATAATATATTACAAGTTCATTCATATAATATGTT [CACACA_negctrl_site1695]”, 6.35.
For “ATCTCTTAAATTTTACGTACTTATTTTATCTTCTTA [XGTACX_site8877]” the value was 6.87; for “ATATTATATATATGATGTACTAAATATATTATTATG [XGTACX_site1703]”, 6.45; for “ATGTTATAAAATATATGTACATATTTATATAAAATA [XGTACX_site5766]”, 6.6.
Regarding “ATATATTTATATAAATGTACACGTGAATATATAATA [XGTACX_site1166]”, the “gcPBM binding intensity (ln)” value stood at 7.17.
As to “TATATAAAAAGTAATTGTACATATATATATATATAT [XGTACX_site7953]”, the “gcPBM binding intensity (ln)” value was determined as 9.26.
Under “TTTATATTCTTTTTTTAACACACAAAAAAAATAAAA [CACACA_site8574]” stands 6.3.
Consider “TCTATTAATGAATATACACACATTATATATATATAT [CACACA_site5410]”, for which the “gcPBM binding intensity (ln)” value was 9.
In the case of “TATTTTATATTATCATGTACAAAAAAAAAGAAAAGA [XGTACX_site5379]”, the “gcPBM binding intensity (ln)” value is 6.58.
Under “ATAAATAATTAGAATTGTACAAAAATTATATATATG [XGTACX_site5107]” stands 6.56; under “ATATGTAAAATGAAGATACATACATACATACATACA [CACACA_negctrl_site715]”, 7.53; under “AATAAATTAGAAGGATGTACTTTGTTTAATATAGAG [XGTACX_site1943]”, 6.33.
As for “AGGTTATATATGAACAAAAATAAAATATTCATAGGC [TGCATGCA_negctrl_site46]”, the “gcPBM binding intensity (ln)” value worked out at 6.5.
Consider “TAATATAATCTGAGTGCACACAAATAAATAAACATA [CACACA_site8032]”, for which the “gcPBM binding intensity (ln)” value was 11.2.
Under “AAAAGGAACGGACACACACACATATATATATATATA [CACACA_site5894]” stands 9.45; under “TATGCAAATTAATAATGTACGAAATATTTATAATTT [XGTACX_site2324]”, 6.73; under “ATTTTGTATTGACGCTGTACAAACATTAATATAATA [XGTACX_site2496]”, 6.45.
For “TTTTGCGTAGCAACGAGGTTTTTAAAAATGTAACCA [GTGCAC_negctrl_site691]” the value was 6.42; for “AACAAAATAAAACACACACACAAATGTACATATATA [CACACA_site2424]”, 7.01.
As for “TAGAAGCATCATTTTACACACATGCAAATGTAAACT [CACACA_site6973]”, the “gcPBM binding intensity (ln)” value amounted to 6.66.
With “GTATATTTAAATAAAAGTACGTAAAGATATATTTAA [XGTACX_site8087]”, the “gcPBM binding intensity (ln)” value was determined as 6.53.
For “ATAATATGCAATATTACACACAATTCATCATTTTTT [CACACA_site7477]” the value was 8.46; for “TTTTTTTTTATTATCATGCACACATTTTTTTTTTTT [CACACA_site2254]”, 9.1; for “ACATATGAATATTTTTGTACGTATATTGTTATTCTT [XGTACX_site4720]”, 6.85.
